Measured values from PubChem BioAssay AID504845 (National Center for Advancing Translational Sciences (NCATS), 2011).
The campaign covered roughly 390,000 compounds. About 150 (0.038%) were called active. Inconclusive means that the source gave no clear call. Such entries were picked first, then a sample of the others. Calls come from the whole dose curve; as a rule, active = well fitted inhibition curve with a large enough effect; inconclusive = small, poorly fitted or top-dose-only effect; inactive = no such curve, though single readings can be large or run the other way. A potency beside an inconclusive call is a rough fit, not a confirmed value.
% is set by controls: 0 for no effect and ±100 for the full control effect; potency is the fitted concentration of half-maximal effect; tags give direction and shape of the fitted curve.
Note: nearly all actives have a fitted effect of over 75% in size.

What follows are compounds tested against Regulator of G-protein signaling 4 (Homo sapiens) (UniProt P49798) (assay: Inhibitors of Regulator of G Protein Signaling (RGS) 4: qHTS). Settings: Transcreener GDP fluorescence polarization, RGS4-accelerated GTP hydrolysis; series mostly up to 114 µM; activity change, negative = inhibition: at the top concentration.
Chain of UniProt P49798 (P49798 whole entry, looked up): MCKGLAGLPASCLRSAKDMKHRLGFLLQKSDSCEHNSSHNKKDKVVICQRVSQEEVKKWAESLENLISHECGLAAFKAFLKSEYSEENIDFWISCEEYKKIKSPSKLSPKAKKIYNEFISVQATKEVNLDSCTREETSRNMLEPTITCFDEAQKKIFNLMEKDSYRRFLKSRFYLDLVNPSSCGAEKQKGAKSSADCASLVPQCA
Outline: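 MLSMR compounds (23 nl, pin-transferred) preincubated 10 min at room temperature with a 500nM (2x) first reagent, then RGS4 at 900nM (2x) plus Transcreener GDP mix added; fluorescence polarization (620/688 nm) read before and after 90 min at 30 °C.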
With O=C(Cn1nc(-c2ccccc2)c2ccccc2c1=O)Nc1ccc2c(c1)nc1n2CCOC1 the Potency was inconclusive: 89.1 µM [inhibitor, single point].
In the case of Oc1ccccc1/C=N/n1cnn(Cc2ccccc2Cl)c1=S, the Potency is reported as inconclusive: 17.8 µM [inhibitor, full curve, poor fit].
In the case of COc1ccc(NC(=O)c2c(NCc3ccc(N(C)C)cc3)sc3c2CCC3)cc1, the Potency is reported as inconclusive: 50.1 µM [inhibitor, partial curve, poor fit].
In the case of Cc1cccc2sc(NNC(=O)c3cc(=O)c4ccccc4o3)nc12, the Potency is reported as inconclusive: 50.1 µM [inhibitor, partial curve, poor fit].
With CCOc1ccc2nc(NC(=O)CSc3nc(-c4ccccc4)c(C#N)c(=O)[nH]3)sc2c1 the Potency was inconclusive: 79.4 µM [inhibitor, partial curve, poor fit].
For COc1ccc(Nc2nnc(SCC(=O)c3cc4ccccc4o3)s2)cc1, the Potency was inconclusive: 79.4 µM [inhibitor, partial curve, poor fit].
In the case of Cc1c(Cl)cccc1NC(=O)CC1Sc2ccccc2NC1=O (stereo not drawn), the Potency is reported as inconclusive: 89.1 µM [inhibitor, single point].
CCOC(=O)COc1ccc2c(C)cc(=O)oc2c1C(=O)c1ccccc1 was tested, and the Potency was inconclusive: 56.2 µM [inhibitor, partial curve, poor fit].
COC(=O)c1ccc(C2c3c(oc4ccccc4c3=O)C(=O)N2c2nc(C)c(C(=O)OC)s2)cc1 (stereo not drawn) was tested, and the “activity change, negative = inhibition” value was inactive: 16.7%.
With O=S1(=O)N=C(N/N=C/c2ccccn2)c2ccccc21 the “activity change, negative = inhibition” value was inactive: 16%.
In the case of COC(=O)c1c(NC(=O)Cn2cnc([N+](=O)[O-])n2)sc2c1CCC(C)C2 (stereo not drawn), the Potency is reported as inconclusive: 50.1 µM [inhibitor, partial curve, poor fit].
With Cc1cc2cc(CCNC(=O)c3ccc(Br)o3)c(=O)[nH]c2cc1C the Potency was inconclusive: 50.1 µM [inhibitor, partial curve, poor fit].
For CCC(C)NS(=O)(=O)c1ccc(S(=O)(=O)N2CC=C(c3ccc(F)cc3)CC2)cc1 (stereo not drawn), the Potency was inconclusive: 44.7 µM [inhibitor, partial curve, poor fit].
In the case of O=C(OCc1cc(=O)n2c(n1)sc1ccccc12)c1ccc2c(=O)n3c(nc2c1)CCC3, the “activity change, negative = inhibition” value is reported as inactive: -19.6%.
In the case of CC(=O)N1CCN(C)CC1, the Potency is reported as inconclusive: 0.377 µM [inhibitor, partial curve, poor fit].
With Cc1cc(OCC(O)CN(CCO)CCO)ccc1Cl (stereo not drawn) the Potency was inconclusive: 89.1 µM [inhibitor, single point].
Nc1ncnc2oc(-c3ccco3)c(-c3ccco3)c12 was tested, and the Potency was inconclusive: 20 µM [inhibitor, full curve, poor fit].
With O=C(c1noc2c1CCCC2)N1CCN(c2ccccc2)CC1 the “activity change, negative = inhibition” value was inactive: 11.1%.
In the case of CCC1CC2(C)NC(=O)c3c(sc4c3CC(C)(C)OC4)N2C1=O (stereo not drawn), the Potency is reported as inconclusive: 79.4 µM [inhibitor, partial curve, poor fit].
For CCNC(=O)c1sc(=S)n(CC)c1N, the Potency was inconclusive: 79.4 µM [inhibitor, partial curve, poor fit].
In the case of CC(=O)Nc1ccc(CN2CCCC(C(=O)c3ccc(C(F)(F)F)cc3)C2)cc1 (stereo not drawn), the “activity change, negative = inhibition” value is reported as inactive: 13.4%.
In the case of CC1CC(=O)C(C(C2=C(O)CC(C)CC2=O)c2ccccc2)=C(O)C1 (stereo not drawn), the Potency is reported as inconclusive: 44.7 µM [inhibitor, partial curve, poor fit].
For O=C(CC(Nc1ccc(Cl)cc1Cl)C(=O)O)c1ccccc1 (stereo not drawn), the “activity change, negative = inhibition” value was inactive: -39.1%.
With O=S(=O)(N/N=C/c1ccccc1F)c1ccccc1 the Potency was inconclusive: 17.8 µM [inhibitor, full curve, poor fit].
With CC1=CC(=C(C#N)C#N)C=C(C)N1CCN1CCNCC1 the Potency was inconclusive: 35.5 µM [inhibitor, full curve, poor fit].
For CC(C)N(C(=O)[C@H]1C[C@H](CC(=O)NCc2ccco2)C(=O)N2CCc3c([nH]c4cc(-c5ccco5)ccc34)[C@]12C)C(C)C, the Potency was inconclusive: 44.7 µM [inhibitor, partial curve, poor fit].
In the case of O=C1C(Br)=C(c2ccccc2)C(c2ccccc2)=C1c1ccccc1, the Potency is reported as inconclusive: 100 µM [inhibitor, partial curve, poor fit].
COc1ccc(/C=N/OCC(=O)Nc2nc3ccccc3s2)cc1OC was tested, and the Potency was inconclusive: 39.8 µM [inhibitor, partial curve, poor fit].
Cc1ccc(C2=NOC(=O)/C2=C\c2ccc(C)o2)cc1 was tested, and the Potency was inconclusive: 20 µM [inhibitor, full curve, poor fit].
COc1ccc(OC)c(CNS(=O)(=O)c2ccc3[nH]c4c(c3c2)CCCCC4)c1 was tested, and the Potency was inconclusive: 70.8 µM [inhibitor, single point].
In the case of COC(=O)C1=C(C)NC(C)=C(C(=O)OCC(C)C)C1c1ccccc1[N+](=O)[O-] (stereo not drawn), the Potency is reported as inconclusive: 35.5 µM [inhibitor, full curve, poor fit].
For CCOc1ccc(C2=Nn3c(nnc3-c3ccc(OC)cc3)SC2)cc1, the Potency was inconclusive: 39.8 µM [inhibitor, partial curve, poor fit].
For CCCCc1ccc(-n2nnnc2SCC(=O)Nc2cc(OC)c([N+](=O)[O-])cc2C)cc1, the Potency was inconclusive: 79.4 µM [inhibitor, partial curve, poor fit].
In the case of Cc1ccc2nc(-c3ccncc3)cc(C(=O)Nc3ccc(OC(F)F)cc3)c2c1, the Potency is reported as inconclusive: 28.2 µM [inhibitor, full curve, poor fit].
For COc1ccc(CNC(=O)CCC2N=C3c4ccccc4N=C(SCc4cccc(F)c4)N3C2=O)cc1 (stereo not drawn), the Potency was inconclusive: 56.2 µM [inhibitor, partial curve, poor fit].
CC1CCN(c2ccc(NC(=S)NC(=O)c3ccc(-c4cccc([N+](=O)[O-])c4)o3)cc2)CC1 was tested, and the Potency was inconclusive: 79.4 µM [inhibitor, partial curve, poor fit].
O=C(Cc1ccc(Cl)cc1)NNS(=O)(=O)c1ccc([N+](=O)[O-])cc1 was tested, and the “activity change, negative = inhibition” value was inactive: -6.03%.
In the case of CCn1c(=O)c2cc(C(=O)NCCCOC)sc2c2ccccc21, the Potency is reported as “inactive”.
